The values below come from paper PMC9911399, “Two distinct binding modes provide the RNA-binding protein RbFox with extraordinary sequence specificity”.

T1: RBFOX1 RRM (Homo sapiens, UniProt Q9NWB1 109-208)
T1 sequence: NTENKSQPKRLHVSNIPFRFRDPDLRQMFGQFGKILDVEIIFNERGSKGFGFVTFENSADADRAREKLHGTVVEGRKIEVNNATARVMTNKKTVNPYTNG

B1: AAUAAUG (DNA:RNA)
RNA: GGGAGACCGGAAUUCAGAUUGUCCAAUAAUGUUAAAUCCCGUCGUAGCCACCA
DNA 1: CAATCTGAATTCCGGTCTCCC
DNA 2: TGGTGGCTACGACGGGATT
B2: ACCUCGG (DNA:RNA)
RNA: B1 RNA with A26C, U27C, A28U, A29C, U30G
DNA 1: CAATCTGAATTCCGGTCTCCC
DNA 2: TGGTGGCTACGACGGGATT
B3: CAGCCAU (DNA:RNA)
RNA: B1 RNA with A25C, U27G, A28C, A29C, U30A, G31U
DNA 1: CAATCTGAATTCCGGTCTCCC
DNA 2: TGGTGGCTACGACGGGATT
B4: UAUCACU (DNA:RNA)
RNA: B1 RNA with A25U, A28C, U30C, G31U
DNA 1: CAATCTGAATTCCGGTCTCCC
DNA 2: TGGTGGCTACGACGGGATT
B5: GGGUUUA (DNA:RNA)
RNA: B1 RNA with A25G, A26G, U27G, A28U, A29U, G31A
DNA 1: CAATCTGAATTCCGGTCTCCC
DNA 2: TGGTGGCTACGACGGGATT
B6: AGAUCCA (DNA:RNA)
RNA: B1 RNA with A26G, U27A, A28U, A29C, U30C, G31A
DNA 1: CAATCTGAATTCCGGTCTCCC
DNA 2: TGGTGGCTACGACGGGATT
B7: CGGCCGG (DNA:RNA)
RNA: B1 RNA with A25C, A26G, U27G, A28C, A29C, U30G
DNA 1: CAATCTGAATTCCGGTCTCCC
DNA 2: TGGTGGCTACGACGGGATT
B8: ACCCCCC (DNA:RNA)
RNA: B1 RNA with A26C, U27C, A28C, A29C, U30C, G31C
DNA 1: CAATCTGAATTCCGGTCTCCC
DNA 2: TGGTGGCTACGACGGGATT
B9: AACAUCG (DNA:RNA)
RNA: B1 RNA with U27C, A29U, U30C
DNA 1: CAATCTGAATTCCGGTCTCCC
DNA 2: TGGTGGCTACGACGGGATT
B10: CGCGUGU (DNA:RNA)
RNA: GGGAGACCGGAAUUCAGAUUGUCCCGCGUGUUUAAAUCCCGUCGUAGCCACCA
DNA 1: CAATCTGAATTCCGGTCTCCC
DNA 2: TGGTGGCTACGACGGGATT
B11: CAGGCCU (DNA:RNA)
RNA: B10 RNA with G26A, C27G, U29C, G30C
DNA 1: CAATCTGAATTCCGGTCTCCC
DNA 2: TGGTGGCTACGACGGGATT
B12: UUGUAUA (DNA:RNA)
RNA: B1 RNA with A25U, A26U, U27G, A28U, G31A
DNA 1: CAATCTGAATTCCGGTCTCCC
DNA 2: TGGTGGCTACGACGGGATT
B13: CCUUGAA (DNA:RNA)
RNA: B1 RNA with A25C, A26C, A28U, A29G, U30A, G31A
DNA 1: CAATCTGAATTCCGGTCTCCC
DNA 2: TGGTGGCTACGACGGGATT
B14: UUCUAUU (DNA:RNA)
RNA: B1 RNA with A25U, A26U, U27C, A28U, G31U
DNA 1: CAATCTGAATTCCGGTCTCCC
DNA 2: TGGTGGCTACGACGGGATT
B15: GUGGCUU (DNA:RNA)
RNA: B10 RNA with C25G, G26U, C27G, U29C, G30U
DNA 1: CAATCTGAATTCCGGTCTCCC
DNA 2: TGGTGGCTACGACGGGATT
B16: AUACAUA (DNA:RNA)
RNA: B1 RNA with A26U, U27A, A28C, G31A
DNA 1: CAATCTGAATTCCGGTCTCCC
DNA 2: TGGTGGCTACGACGGGATT
B17: GUUAAAA (DNA:RNA)
RNA: B1 RNA with A25G, A26U, U30A, G31A
DNA 1: CAATCTGAATTCCGGTCTCCC
DNA 2: TGGTGGCTACGACGGGATT
B18: UUGGAGA (DNA:RNA)
RNA: B10 RNA with C25U, G26U, C27G, U29A, U31A
DNA 1: CAATCTGAATTCCGGTCTCCC
DNA 2: TGGTGGCTACGACGGGATT
B19: CUGGCAC (DNA:RNA)
RNA: B10 RNA with G26U, C27G, U29C, G30A, U31C
DNA 1: CAATCTGAATTCCGGTCTCCC
DNA 2: TGGTGGCTACGACGGGATT
B20: ACCGCCG (DNA:RNA)
RNA: B1 RNA with A26C, U27C, A28G, A29C, U30C
DNA 1: CAATCTGAATTCCGGTCTCCC
DNA 2: TGGTGGCTACGACGGGATT
B21: ACGAAAG (DNA:RNA)
RNA: B1 RNA with A26C, U27G, U30A
DNA 1: CAATCTGAATTCCGGTCTCCC
DNA 2: TGGTGGCTACGACGGGATT
B22: GGAGAGA (DNA:RNA)
RNA: B10 RNA with C25G, C27A, U29A, U31A
DNA 1: CAATCTGAATTCCGGTCTCCC
DNA 2: TGGTGGCTACGACGGGATT
B23: CGAAGUG (DNA:RNA)
RNA: B1 RNA with A25C, A26G, U27A, A29G
DNA 1: CAATCTGAATTCCGGTCTCCC
DNA 2: TGGTGGCTACGACGGGATT
B24: GCGACGG (DNA:RNA)
RNA: B1 RNA with A25G, A26C, U27G, A29C, U30G
DNA 1: CAATCTGAATTCCGGTCTCCC
DNA 2: TGGTGGCTACGACGGGATT
B25: CGGGAGG (DNA:RNA)
RNA: B10 RNA with C27G, U29A, U31G
DNA 1: CAATCTGAATTCCGGTCTCCC
DNA 2: TGGTGGCTACGACGGGATT
B26: AUAAUCA (DNA:RNA)
RNA: B1 RNA with A26U, U27A, A29U, U30C, G31A
DNA 1: CAATCTGAATTCCGGTCTCCC
DNA 2: TGGTGGCTACGACGGGATT
B27: GUUCCUG (DNA:RNA)
RNA: B1 RNA with A25G, A26U, A28C, A29C
DNA 1: CAATCTGAATTCCGGTCTCCC
DNA 2: TGGTGGCTACGACGGGATT
B28: ACACAAC (DNA:RNA)
RNA: B1 RNA with A26C, U27A, A28C, U30A, G31C
DNA 1: CAATCTGAATTCCGGTCTCCC
DNA 2: TGGTGGCTACGACGGGATT
B29: UUGGCAA (DNA:RNA)
RNA: B10 RNA with C25U, G26U, C27G, U29C, G30A, U31A
DNA 1: CAATCTGAATTCCGGTCTCCC
DNA 2: TGGTGGCTACGACGGGATT
B30: AAAUUAU (DNA:RNA)
RNA: B1 RNA with U27A, A28U, A29U, U30A, G31U
DNA 1: CAATCTGAATTCCGGTCTCCC
DNA 2: TGGTGGCTACGACGGGATT
B31: CUUUACC (DNA:RNA)
RNA: B1 RNA with A25C, A26U, A28U, U30C, G31C
DNA 1: CAATCTGAATTCCGGTCTCCC
DNA 2: TGGTGGCTACGACGGGATT

Positions count from the first letter of the chain named. The list shows a part of the results.

This experiment concerns the target T1, RBFOX1 RRM. The experiment is described as follows: EMSA; HiTS-Eq, 1 nM pool, 10 min; buffer printed only for the single-RNA assays: 10 mM Tris pH 7.5, 150 mM NaCl, 3.4 mM EDTA, 0.001% NP-40, 30 C. The conditions noted are these: tags: His6 N-terminal (pET28a); label: 5' 32P. In short, it runs like this:
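Purified wild-type or mutant RbFox RRM at increasing concentrations was equilibrated with 1 nM of 5′-radiolabelled RNA carrying 7 randomized nucleotides for 10 min in 50 µL. Unbound RNA was separated by 8% native PAGE and sequenced. Relative association constants came from read-count changes of each RNA species compared with the control reaction, normalised to the cognate motif.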
For orientation: In EMSA bound probe runs differently from free probe, usually more slowly.
Regarding B1, the binding signal is 0.00612 KA relative to UGCAUGU.

Consider B2, for which the binding signal is 0.00718 KA relative to UGCAUGU.

In the case of B3, the binding signal is 0.00194 KA relative to UGCAUGU.

As to B4, the binding signal was 0.00813 KA relative to UGCAUGU.

With B5, the binding signal was 0.0165 KA relative to UGCAUGU.

Turning to B6, the binding signal was 0.00246 KA relative to UGCAUGU.

As for B7, the binding signal was 0.0119 KA relative to UGCAUGU.

Turning to B8, the binding signal is 0.00425 KA relative to UGCAUGU.

Consider B9, for which the binding signal was 0.00596 KA relative to UGCAUGU.

As to B10, the binding signal is 0.0198 KA relative to UGCAUGU.

Regarding B11, the binding signal was 0.013 KA relative to UGCAUGU.

For B12, the binding signal was 0.0063 KA relative to UGCAUGU.

Take B13: the binding signal was 0.0087 KA relative to UGCAUGU.

As to B14, the binding signal was 0.00688 KA relative to UGCAUGU.

As to B15, the binding signal is 0.0272 KA relative to UGCAUGU.

In the case of B16, the binding signal is 0.000884 KA relative to UGCAUGU.

As to B17, the binding signal is 0.00575 KA relative to UGCAUGU.

For B18, the binding signal was 0.00954 KA relative to UGCAUGU.

Turning to B19, the binding signal is 0.0183 KA relative to UGCAUGU.

As for B20, the binding signal was 0.00411 KA relative to UGCAUGU.

As for B21, the binding signal is 0.00611 KA relative to UGCAUGU.

Consider B22, for which the binding signal is 0.0135 KA relative to UGCAUGU.

Consider B23, for which the binding signal was 0.0164 KA relative to UGCAUGU.

As for B24, the binding signal is 0.0219 KA relative to UGCAUGU.

As for B25, the binding signal was 0.0133 KA relative to UGCAUGU.

Regarding B26, the binding signal is 0.00259 KA relative to UGCAUGU.

As to B27, the binding signal is 0.0175 KA relative to UGCAUGU.

As to B28, the binding signal was 0.00126 KA relative to UGCAUGU.

As for B29, the binding signal is 0.0145 KA relative to UGCAUGU.

Turning to B30, the binding signal was 0.00144 KA relative to UGCAUGU.

In the case of B31, the binding signal is 0.00108 KA relative to UGCAUGU.
